Data from PubChem BioAssay AID1030 (National Center for Advancing Translational Sciences (NCATS), 2008).
Screen size: about 220,000 compounds; about 16,000 (7.3%) were called active. Inconclusive means that the source gave no clear call. Such entries were picked first, then a sample of the others. Calls come from the whole dose curve; as a rule, active = well fitted inhibition curve with a large enough effect (not every such curve was filed as active); inconclusive = small, poorly fitted or top-dose-only effect, or another doubt; inactive = no such curve, though single readings can be large or run the other way. No potency is given beside an inconclusive call; the fits are too rough.

The compounds below were run against Aldehyde dehydrogenase 1A1 (Homo sapiens) (UniProt P00352) (assay: qHTS Assay for Inhibitors of Aldehyde Dehydrogenase 1 (ALDH1A1)). Details: Purified ALDH1A1, NADH fluorescence, propionaldehyde substrate; series mostly up to 75.3 µM.
Potency is the fitted concentration of half-maximal effect; tags give direction and shape of the fitted curve.

Chain of UniProt P00352 (P00352 whole entry, looked up): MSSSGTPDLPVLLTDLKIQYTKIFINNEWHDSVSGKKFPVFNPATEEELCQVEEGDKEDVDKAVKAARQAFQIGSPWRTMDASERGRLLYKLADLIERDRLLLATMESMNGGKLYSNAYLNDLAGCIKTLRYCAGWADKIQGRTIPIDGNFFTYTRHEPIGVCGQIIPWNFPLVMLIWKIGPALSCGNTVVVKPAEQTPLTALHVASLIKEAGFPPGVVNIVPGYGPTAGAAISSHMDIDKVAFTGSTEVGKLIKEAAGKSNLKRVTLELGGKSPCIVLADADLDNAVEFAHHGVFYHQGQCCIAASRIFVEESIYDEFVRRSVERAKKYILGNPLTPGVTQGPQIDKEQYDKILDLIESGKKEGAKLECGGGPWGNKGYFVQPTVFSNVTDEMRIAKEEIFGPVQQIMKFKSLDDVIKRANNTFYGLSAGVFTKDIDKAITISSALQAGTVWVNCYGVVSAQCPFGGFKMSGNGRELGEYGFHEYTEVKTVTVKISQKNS

Compound | Potency
Cc1cc(C)cc(-n2nnn(C3C/C(=N/NC(N)=S)C4OCC3O4)c2=S)c1 (stereo unspecified) | inconclusive [inhibitor, single point]
Cc1ccc(OCC(=O)N2CCN(c3nnc(-c4ccc(C)cc4)c4ccccc34)CC2)cc1 | active: 14.1 µM
Cc1ccc(N2C(=O)c3ccccc3C2O)nc1 (stereo unspecified) | inactive
CC(=O)Nc1ccc(S(=O)(=O)NCc2ccc(C(=O)NC(C)c3ccccc3)cc2)cc1 (stereo unspecified) | inconclusive [inhibitor, single point]
Cn1c(=O)oc2cc(S(=O)(=O)NCCC(=O)N3CCc4ccccc4C3)ccc21 | inconclusive [inhibitor, single point]
O=C(CC1(O)C(=O)N(Cc2ccc3c(c2)OCO3)c2ccccc21)c1ccccc1 (stereo unspecified) | active: 8.91 µM
O=Cc1cnc(N2CCN(c3ccccc3)CC2)s1 | active: 3.98 µM
COCCCNc1oc(-c2ccccc2F)nc1C#N | inconclusive [inhibitor, partial curve]
Cc1ccc(S(=O)(=O)N(CCO)c2cc3c(s2)CCCC3)cc1 | inconclusive [inhibitor, single point]
c1cncc(-c2nc3ccccn3c2Nc2ccc3c(c2)OCCO3)c1 | inconclusive [inhibitor, single point]
O=C(COc1ccccc1)NC(NC(=S)Nc1ccccc1C(=O)O)C(Cl)(Cl)Cl (stereo unspecified) | inconclusive [inhibitor, single point]
CCOc1cccc(CNc2ccc(O)cc2)c1OCc1ccc(Cl)cc1 | active: 2.24 µM
O=C(Cn1[nH]c(=O)c2ccccc2c1=O)OCC(=O)N1CCCc2ccccc21 | inactive
Cc1cccc(-n2c(-c3csc(C(C)C)c3)n[nH]c2=S)c1 | active: 15.8 µM
COc1cc(C(C(=O)NC2CCCCC2)N(C(=O)Cc2c[nH]c3ccccc23)c2ccccc2C)cc(OC)c1OC (stereo unspecified) | inactive
CC(C)C[C@H](NC(=O)OC(C)(C)C)C(=O)N/N=C/C1=Cc2ccccc2OC1C (stereo partly specified) | inconclusive [inhibitor, single point]
O=C(CN1C(=O)CC(c2ccco2)Sc2ccccc21)Nc1ccc2c(c1)OCCO2 (stereo unspecified) | active: 14.1 µM
COC(=O)c1ccc(C(NC(=O)OCc2ccccc2)/C(=C/[C@@H](C)C(=O)NCc2ccc(-c3ccccc3)cc2)c2cccnc2)cc1 (stereo partly specified) | inactive
CN(C)c1ccc(/C=C/C=C2/SC(=S)N(c3ccccc3)C2=O)cc1 | inconclusive [inhibitor, partial curve]
CCn1cc(C(=O)O)c(=O)c2cc(F)c(N3CCN(C(=S)NC(=O)c4ccc(Br)cc4)CC3)cc21 | inconclusive [inhibitor, single point]
O=C(C1=C[C@H](c2ccc(C(F)(F)F)cc2)C[C@H](OCc2ccc(CO)cc2)O1)N1CCN(Cc2ccccc2)CC1 | inconclusive [inhibitor, single point]
Cc1ccc(C(=O)C2=C(O)C(=O)N(Cc3ccccc3)C2c2cccnc2)o1 (stereo unspecified) | inactive
Cc1cc(C(=O)NCCCn2ccnc2)sc1-c1ccccc1 | inconclusive [inhibitor, single point]

Compound | Potency
O=C(O)COc1ccc2c(c1)OCCO2 | inactive
O=C(/C=C/c1cccc2ccccc12)NCCC1=CCCCC1 | inconclusive [inhibitor, single point]
CCOC(=O)c1ccc(N2C(=O)CC(NC3CCN(C(=O)c4cccc(Cl)c4)CC3)C2=O)cc1 (stereo unspecified) | active: 12.6 µM
CCCS(=O)(=O)NCCc1cc2c(OC)ccc(OC)c2[nH]c1=O | inconclusive [inhibitor, partial curve]
CC(C)(C)NC(=O)CSc1ncnc2c1nnn2Cc1ccccc1Cl | inconclusive [inhibitor, single point]
Cc1ccc(C(c2nnnn2Cc2cccs2)N2CCN(C(=O)c3ccco3)CC2)cc1 (stereo unspecified) | active: 4.47 µM
NNC(=O)c1cc2nc(-c3cccs3)cc(C(F)(F)F)n2n1 | inconclusive [inhibitor, partial curve]
CCOC(=O)CN(Cc1sccc1C)C(=O)Nc1ccc(OC)cc1OC | inactive
CC1=CC(=C2N=C(c3ccccc3)OC2=O)C=C(C)O1 | inactive
COc1cc(/C=c2/sc3nc(-c4ccccc4)c(-c4ccccc4)n3c2=O)cc(OC)c1OC | inconclusive [inhibitor, partial curve]
O=S(=O)(Nc1ccc2c(c1)OCCO2)c1cccc2nsnc12 | active: 25.1 µM
O=C(c1cc(COc2c(F)cccc2F)on1)N1CCC(c2ccncc2)CC1 | inconclusive [inhibitor, single point]
CC(C)(C)c1ccc(C(=O)N/N=C/c2ccc(OCCCF)cc2)cc1 | inconclusive [inhibitor, single point]
NS(=O)(=O)c1ccc(CCNC(=O)C2CCN(S(=O)(=O)c3ccc(Br)s3)CC2)cc1 | inactive
CCOc1ccc(C2CC(c3ccccc3C)n3ncnc3N2)cc1 (stereo unspecified) | inconclusive [inhibitor, single point]
COc1ccccc1O | inactive
Cc1ccc2nc(-c3cccs3)oc(=O)c2c1 | inconclusive [inhibitor, single point]
C(=C\c1cc(/C=C/c2ccccc2)ncn1)/c1ccccc1 | inconclusive [inhibitor, partial curve]
CNC(=O)CSc1nc2c(c(=O)n(C)c(=O)n2C)n1Cc1ccc(C)cc1 | inactive
CC(C)(CO)NCC(=O)Nc1cc(C(F)(F)F)cc(NC(=O)CNC(C)(C)CO)c1Cl | inactive
COc1c(C)cc(C(=O)C2CCCN(C(=O)c3ccoc3)C2)cc1C (stereo unspecified) | inconclusive [inhibitor, partial curve]
CCNCC(=O)N1c2ccccc2CCc2ccc(NC(C)=O)cc21 | inactive
O=C(c1ccccc1)[C@@H]1[C@@H](C(=O)c2ccc(F)cc2)[C@@]2(C(=O)Nc3ccccc32)[C@H]2c3ccccc3C=CN12 | active: 11.2 µM
